In the supplement of paper PMC12423691:
The list shows a part of the results. Binding of human transcription factors and regulators to the viral nucleoprotein by AlphaScreen, crude cell-free proteins, amounts not normalised, one pass. Fold of the Venus control; higher = more signal. No active / inactive call. Single-pass screen; sequences are the whole Swiss-Prot entries looked up by name.

B1: ZSCAN29, Q8IWY8 (protein)
chain: MMAKSALRENGTNSETFRQRFRRFHYQEVAGPREAFSQLWELCCRWLRPEVRTKEQIVELLVLEQFLTVLPGEIQNWVQEQCPENGEEAVTLVEDLEREPGRPRSSVTVSVKGQEVRLEKMTPPKSSQELLSVRQESVEPQPRGVPKKERARSPDLGPQEQMNPKEKLKPFQRSGLPFPKSGVVSRLEQGEPWIPDLLGSKEKELPSGSHIGDRRVHADLLPSKKDRRSWVEQDHWSFEDEKVAGVHWGYEETRTLLAILSQTEFYEALRNCHRNSQVYGAVAERLREYGFLRTLEQCRTKFKGLQKSYRKVKSGHPPETCPFFEEMEALMSAQVIALPSNGLEAAASHSGLVGSDAETEEPGQRGWQHEEGAEEAVAQESDSDDMDLEATPQDPNSAAPVVFRSPGGVHWGYEETKTYLAILSETQFYEALRNCHRNSQLYGAVAERLWEYGFLRTPEQCRTKFKSLQTSYRKVKNGQAPETCPFFEEMDALVSVRVAAPPNDGQEETASCPVQGTSEAEAQKQAEEADEATEEDSDDDEEDTEIPPGAVITRAPVLFQSPRGFEAGFENEDNSKRDISEEVQLHRTLLARSERKIPRYLHQGKGNESDCRSGRQWAKTSGEKRGKLTLPEKSLSEVLSQQRPCLGERPYKYLKYSKSFGPNSLLMHQVSHQVENPYKCADCGKSFSRSARLIRHRRIHTGEKPYKCLDCGKSFRDSSNFITHRRIHTGEKPYQCGECGKCFNQSSSLIIHQRTHTGEKPYQCEECGKSFNNSSHFSAHRRIHTGERPHVCPDCGKSFSKSSDLRAHHRTHTGEKPYGCHDCGKCFSKSSALNKHGEIHAREKLLTQSAPK
B2: RFX2, P48378 (protein)
chain: MQNSEGGADSPASVALRPSAAAPPVPASPQRVLVQAASSNPKGAQMQPISLPRVQQVPQQVQPVQHVYPAQVQYVEGGDAVYTNGAIRTAYTYNPEPQMYAPSSTASYFEAPGGAQVTVAASSPPAVPSHSMVGITMDVGGSPIVSSAGAYLIHGGMDSTRHSLAHTSRSSPATLEMAIENLQKSEGITSHKSGLLNSHLQWLLDNYETAEGVSLPRSSLYNHYLRHCQEHKLDPVNAASFGKLIRSVFMGLRTRRLGTRGNSKYHYYGIRLKPDSPLNRLQEDTQYMAMRQQPMHQKPRYRPAQKTDSLGDSGSHSGLHSTPEQTMAVQSQHHQQYIDVSHVFPEFPAPDLGSFLLQDGVTLHDVKALQLVYRRHCEATVDVVMNLQFHYIEKLWLSFWNSKASSSDGPTSLPASDEDPEGAVLPKDKLISLCQCDPILRWMRSCDHILYQALVEILIPDVLRPVPSTLTQAIRNFAKSLEGWLTNAMSDFPQQVIQTKVGVVSAFAQTLRRYTSLNHLAQAARAVLQNTSQINQMLSDLNRVDFANVQEQASWVCQCEESVVQRLEQDFKLTLQQQSSLDQWASWLDSVVTQVLKQHAGSPSFPKAARQFLLKWSFYSSMVIRDLTLRSAASFGSFHLIRLLYDEYMFYLVEHRVAEATGETPIAVMGEFNDLASLSLTLLDKDDMGDEQRGSEAGPDARSLGEPLVKRERSDPNHSLQGI
B3: EVX1, P49640 (protein)
chain: MESRKDMVVFLDGGQLGTLVGKRVSNLSEAVGSPLPEPPEKMVPRGCLSPRAVPPATRERGGGGPEEEPVDGLAGSAAGPGAEPQVAGAAMLGPGPPAPSVDSLSGQGQPSSSDTESDFYEEIEVSCTPDCATGNAEYQHSKGSGSEALVGSPNGGSETPKSNGGSGGGGSQGTLACSASDQMRRYRTAFTREQIARLEKEFYRENYVSRPRRCELAAALNLPETTIKVWFQNRRMKDKRQRLAMTWPHPADPAFYTYMMSHAAAAGGLPYPFPSHLPLPYYSPVGLGAASAASAAASPFSGSLRPLDTFRVLSQPYPRPELLCAFRHPPLYPGPAHGLGASAGGPCSCLACHSGPANGLAPRAAAASDFTCASTSRSDSFLTFAPSVLSKASSVALDQREEVPLTR
B4: ARHGEF5, Q12774 (protein)
chain: MEAEEAQRGASPPISAIEEFSIIPEAPMRSSQVSALGLEAQEDEDPSYKWREEHRLSATQQSELRDVCDYAIETMPSFPKEGSADVEPNQESLVAEACDTPEHWEAVPQSLAGRQARTLAPPELWACPIQSEHLDMAPFSSDLGSEEEEVEFWPGLTSLTLGSGQAEEEEETSSDNSGQTRYYSPCEEHPAETNQNEGSESGTIRQGEELPPEELQESQGLLHPQEVQVLEEQGQQEAGFRGEGTLREDVCADGLLGEEQMIEQVNDEKGEQKQKQEQVQDVMLGRQGERMGLTGEPEGLNDGEWEQEDMERKAQGQGGPEQGEERKRELQVPEENRADSQDEKSQTFLGKSEEVTGKQEDHGIKEKGVPVSGQEAKEPESWDGGRLGAVGRARSREEENEHHGPSMPALIAPEDSPHCDLFPGASYLMTQIPGTQTESRAEELSPAALSPSLEPIRCSHQPISLLGSFLTEESPDKEIDQNSQQEESRLRKGTVSSQGTEVVFASASVTPPRTPDSAPPSPAEAYPITPASVSARPPVAFPRRETSCAARAPETASAPLSMDDPSPCGTSEMCPAALYGFPSTGTSPPRPPANSTGTVQHLRSDSFPGSHRTEQTPDLVGMLLSYSHSELPQRPPKPAIYSSVTPRRDRRSGRDYSTVSASPTALSTLKQDSQESISNLERPSSPPSIQPWVSPHNPAFATESPAYGSSPSFVSMEDVRIHEPLPPPPPQRRDTHPSVVETDGHARVVVPTLKQHSHPPPLALGSGLHAPHKGPLPQASDPAVARQHRPLPSTPDSSHHAQATPRWRYNKPLPPTPDLPQPHLPPISAPGSSRIYRPLPPLPIIDPPTEPPPLPPKSRGRSRSTRGGHMNSGGHAKTRPACQDWTVPLPASAGRTSWPPATARSTESFTSTSRSKSEVSPGMAFSNMTNFLCPSSPTTPWTPELQGPTSKDEAGVSEHPEAPAREPLRRTTPQQGASGPGRSPVGQARQPEKPSHLHLEKASSWPHRRDSGRPPGDSSGQAVAPSEGANKHKGWSRQGLRRPSILPEGSSDSRGPAVEKHPGPSDTVVFREKKPKEVMGGFSRRCSKLINSSQLLYQEYSDVVLNKEIQSQQRLESLSETPGPSSPRQPRKALVSSESYLQRLSMASSGSLWQEIPVVRNSTVLLSMTHEDQKLQEVKFELIVSEASYLRSLNIAVDHFQLSTSLRATLSNQEHQWLFSRLQDVRDVSATFLSDLEENFENNIFSFQVCDVVLNHAPDFRRVYLPYVTNQTYQERTFQSLMNSNSNFREVLEKLESDPVCQRLSLKSFLILPFQRITRLKLLLQNILKRTQPGSSEEAEATKAHHALEQLIRDCNNNVQSMRRTEELIYLSQKIEFECKIFPLISQSRWLVKSGELTALEFSASPGLRRKLNTRPVHLHLFNDCLLLSRPREGSRFLVFDHAPFSSIRGEKCEMKLHGPHKNLFRLFLRQNTQGAQAEFLFRTETQSEKLRWISALAMPREELDLLECYNSPQVQCLRAYKPRENDELALEKADVVMVTQQSSDGWLEGVRLSDGERGWFPVQQVEFISNPEVRAQNLKEAHRVKTAKLQLVEQQA
B5: AR, P10275 (protein)
chain: MEVQLGLGRVYPRPPSKTYRGAFQNLFQSVREVIQNPGPRHPEAASAAPPGASLLLLQQQQQQQQQQQQQQQQQQQQQQQETSPRQQQQQQGEDGSPQAHRRGPTGYLVLDEEQQPSQPQSALECHPERGCVPEPGAAVAASKGLPQQLPAPPDEDDSAAPSTLSLLGPTFPGLSSCSADLKDILSEASTMQLLQQQQQEAVSEGSSSGRAREASGAPTSSKDNYLGGTSTISDNAKELCKAVSVSMGLGVEALEHLSPGEQLRGDCMYAPLLGVPPAVRPTPCAPLAECKGSLLDDSAGKSTEDTAEYSPFKGGYTKGLEGESLGCSGSAAAGSSGTLELPSTLSLYKSGALDEAAAYQSRDYYNFPLALAGPPPPPPPPHPHARIKLENPLDYGSAWAAAAAQCRYGDLASLHGAGAAGPGSGSPSAAASSSWHTLFTAEEGQLYGPCGGGGGGGGGGGGGGGGGGGGGGGEAGAVAPYGYTRPPQGLAGQESDFTAPDVWYPGGMVSRVPYPSPTCVKSEMGPWMDSYSGPYGDMRLETARDHVLPIDYYFPPQKTCLICGDEASGCHYGALTCGSCKVFFKRAAEGKQKYLCASRNDCTIDKFRRKNCPSCRLRKCYEAGMTLGARKLKKLGNLKLQEEGEASSTTSPTEETTQKLTVSHIEGYECQPIFLNVLEAIEPGVVCAGHDNNQPDSFAALLSSLNELGERQLVHVVKWAKALPGFRNLHVDDQMAVIQYSWMGLMVFAMGWRSFTNVNSRMLYFAPDLVFNEYRMHKSRMYSQCVRMRHLSQEFGWLQITPQEFLCMKALLLFSIIPVDGLKNQKFFDELRMNYIKELDRIIACKRKNPTSCSRRFYQLTKLLDSVQPIARELHQFTFDLLIKSHMVSVDFPEMMAEIISVQVPKILSGKVKPIYFHTQ
B6: ZNF280A, P59817 (protein)
chain: MGDIFLCKKVESPKKNLRESKQREEDDEDPDLIYVGVEHVHRDAEVLFVGMISNSKPVVSNILNRVTPGSNSRRKKGHFRQYPAHVSQPANHVTSMAKAIMPVSLSEGRSTDSPVTMKSSSEPGYKMSSPQVVSPSSSDSLPPGTQCLVGAMVSGGGRNESSPDSKRLSTSDINSRDSKRVKLRDGIPGVPSLAVVPSDMSSTISTNTPSQGICNSSNHVQNGVTFPWPDANGKAHFNLTDPERASESALAMTDISSLASQNKTFDPKKENPIVLLSDFYYGQHKGDGQPEQKTHTTFKCLSCVKVLKNIKFMNHMKHHLEFEKQRNDSWEDHTTCQHCHRQFPTPFQLQCHIDSVHIAMGPSAVCKICELSFETDQVLLQHMKDHHKPGEMPYVCQVCHYRSSVFADVETHFRTCHENTKNLLCLFCLKLFKTAIPYMNHCWRHSRRRVLQCSKCRLQFLTLKEEIEHKTKDHQTFKKPEQLQGLPSETKVIIQTSVQPGSSGMASVIVSNTDPQSSPVKTKKKTAMNTRDSRLPCSKDSS

The binders below were run against nucleoprotein N of Crimean-Congo hemorrhagic fever virus (assay: AlphaScreen luminescence signal relative to Venus negative control (fold); higher = stronger binding to CCHFV N).
Method: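 AlphaScreen binding of cell-free made, FLAG-GST-tagged human transcription factors and regulators (crude translation products) to biotinylated N protein; signal as fold of the FLAG-GST-Venus control. One pass.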

| Binder | AlphaScreen luminescence signal |
| --- | --- |
| B1 | 4.09 |
| B2 | 2.88 |
| B3 | 1.58 |
| B4 | 0.93 |
| B5 | 1.72 |
| B6 | 3.4 |
